Reference: the supplement of paper PMC11369174, “Proteome-scale characterisation of motif-based interactome rewiring by disease mutations” (Molecular Systems Biology, 2024)
This is one part of the list. The data scatter; read single values as rough.

T1: GRAP2_SH3_2_O75791_274_329
T1 chain: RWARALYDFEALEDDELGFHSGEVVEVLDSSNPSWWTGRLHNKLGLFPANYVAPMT

T2: DOK1_PTB__Q99704_151_256
T2 chain: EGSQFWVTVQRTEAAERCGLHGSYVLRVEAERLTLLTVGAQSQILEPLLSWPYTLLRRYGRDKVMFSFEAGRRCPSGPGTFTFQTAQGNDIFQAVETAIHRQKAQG

T3: EIF3B_RRM__P55884_172_274
T3 chain: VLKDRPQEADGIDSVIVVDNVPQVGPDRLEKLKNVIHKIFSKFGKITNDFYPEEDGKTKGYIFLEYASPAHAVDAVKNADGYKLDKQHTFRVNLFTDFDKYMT


What follows are binders tested against DMD_WW-EF__P11532_3055_3088 (assay: mutation enrichment score (mutant vs wild-type peptide binding to bait); baits are purified protein domains named by gene / domain / UniProt id / residues; peptides come from disordered regions of human proteins; higher = mutation enhances binding relative to wild type). Conditions: number of wild-type / mutant comparisons summed (bounds the score): 6; paper call: no_effect; wild-type window: ….
With PEAPPLDRVFRTTWLSTECDFHPLPPSYRKFLFETQAADLA [S24F S24F] the mutation enrichment score was -3.3.

What follows are binders tested against NEDD4_WW_2_P46934_765_803 in the same assay as above. Conditions: number of wild-type / mutant comparisons summed (bounds the score): 6; paper call: no_effect; wild-type window: ….
Sequence of NEDD4_WW_2_P46934_765_803 (chain, as listed by the source): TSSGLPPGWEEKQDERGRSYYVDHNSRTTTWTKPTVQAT
In the case of PEAPPLDRVFRTTWLSTECDFHPLPPSYRKFLFETQAADLA [S24F S24F], the mutation enrichment score is reported as -3.9.

The binders below were run against WWTR1_WW__Q9GZV5_122_160 in the same assay as above. Conditions: number of wild-type / mutant comparisons summed (bounds the score): 6; paper call: no_effect; wild-type window: ….
Sequence of WWTR1_WW__Q9GZV5_122_160 (chain, as listed by the source): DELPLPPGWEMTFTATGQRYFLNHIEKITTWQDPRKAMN
In the case of PEAPPLDRVFRTTWLSTECDFHPLPPSYRKFLFETQAADLA [S24F S24F], the mutation enrichment score is reported as -3.8.

What follows are binders tested against DMD_WW-EF__P11532_3055_3088 in the same assay as above. Conditions: number of wild-type / mutant comparisons summed (bounds the score): 12; paper call: enhanced; wild-type window: ….
YTPPVTSGMSLGMSATTHYHNYLPPPYPGSSQSQSGPFQTS [T420N T420N] showed a mutation enrichment score of 5.2. ENSSPEKTDATSSTTSPPSYASVTKPDKEKYEQDRTEKEDK [D1959A D1959A] gave a mutation enrichment score of 10.

These binders were tested against NEDD4_WW_2_P46934_765_803 in the same assay as above. Conditions: number of wild-type / mutant comparisons summed (bounds the score): 12; paper call: enhanced; wild-type window: ….
For YTPPVTSGMSLGMSATTHYHNYLPPPYPGSSQSQSGPFQTS [T420N T420N], the mutation enrichment score was 11.

The binders below were run against SMURF2_WW_3_Q9HAU4_298_330 in the same assay as above. Conditions: number of wild-type / mutant comparisons summed (bounds the score): 12; paper call: enhanced; wild-type window: ….
YTPPVTSGMSLGMSATTHYHNYLPPPYPGSSQSQSGPFQTS [T420N T420N] showed a mutation enrichment score of 5.5. Work on ENSSPEKTDATSSTTSPPSYASVTKPDKEKYEQDRTEKEDK [D1959A D1959A] yielded a mutation enrichment score of 11.

Each binder was assayed against WWTR1_WW__Q9GZV5_122_160 in the same assay as above. Conditions: number of wild-type / mutant comparisons summed (bounds the score): 12; paper call: enhanced; wild-type window: ….
Work on YTPPVTSGMSLGMSATTHYHNYLPPPYPGSSQSQSGPFQTS [T420N T420N] yielded a mutation enrichment score of 6.9. Binder ENSSPEKTDATSSTTSPPSYASVTKPDKEKYEQDRTEKEDK [D1959A D1959A] has a mutation enrichment score of 11.

Each binder was assayed against NEDD4_WW_2_P46934_765_803 in the same assay as above. Conditions: number of wild-type / mutant comparisons summed (bounds the score): 18; paper call: enhanced; wild-type window: ….
Work on ENSSPEKTDATSSTTSPPSYASVTKPDKEKYEQDRTEKEDK [D1959A D1959A] yielded a mutation enrichment score of 11.

The binders below were run against DMD_WW-EF__P11532_3055_3088 in the same assay as above. Conditions: number of wild-type / mutant comparisons summed (bounds the score): 12; paper call: no_effect; wild-type window: ….
For TDLTMSTAACPPSYDRVTKPVVEKHEQEGKDEKAKGK [I1993V I1993V], the mutation enrichment score was 0.

Target: T1, GRAP2_SH3_2_O75791_274_329
Experiment: as above
Conditions: number of wild-type / mutant comparisons summed (bounds the score): 18; paper call: no_effect; wild-type window: …
In the case of TDLTMSTAACPPSYDRVTKPVVEKHEQEGKDEKAKGK [I1993V I1993V], the mutation enrichment score is reported as -1.7.

The binders below were run against Intersectin-1_SH3_2_Q15811_913_971 in the same assay as above. Conditions: number of wild-type / mutant comparisons summed (bounds the score): 12; paper call: no_effect; wild-type window: ….
With TDLTMSTAACPPSYDRVTKPVVEKHEQEGKDEKAKGK [I1993V I1993V] the mutation enrichment score was -2.

What follows are binders tested against NEDD4_WW_2_P46934_765_803 in the same assay as above. Conditions: number of wild-type / mutant comparisons summed (bounds the score): 12; paper call: no_effect; wild-type window: ….
In the case of TDLTMSTAACPPSYDRVTKPVVEKHEQEGKDEKAKGK [I1993V I1993V], the mutation enrichment score is reported as -2.4.

These binders were tested against SMURF2_WW_3_Q9HAU4_298_330 in the same assay as above. Conditions: number of wild-type / mutant comparisons summed (bounds the score): 12; paper call: no_effect; wild-type window: ….
TDLTMSTAACPPSYDRVTKPVVEKHEQEGKDEKAKGK [I1993V I1993V] was tested, and the mutation enrichment score was -6.

The binders below were run against WWTR1_WW__Q9GZV5_122_160 in the same assay as above. Conditions: number of wild-type / mutant comparisons summed (bounds the score): 12; paper call: no_effect; wild-type window: ….
With TDLTMSTAACPPSYDRVTKPVVEKHEQEGKDEKAKGK [I1993V I1993V] the mutation enrichment score was -2.2.

Target: T2, DOK1_PTB__Q99704_151_256
Experiment: as above
Conditions: number of wild-type / mutant comparisons summed (bounds the score): 5; paper call: no_effect; wild-type window: …
Binder WVVRNWTDLENSIVSVERMQHYAWTPKEAPWRLPTCAAQPP [D1238H D1238H] has a mutation enrichment score of 3. With VSAALQVTQTLQWVVRNWTDIENSIVSVERMQDYAWTPKEA [L1226I L1226I] the mutation enrichment score was -1. For TLQWVVRNWTDLENSIVSVEGMQDYAWTPKEAPWRLPTCAA [R1235G R1235G], the mutation enrichment score was -5. For TLQWVVRNWTDLENSIVSVEWMQDYAWTPKEAPWRLPTCAA [R1235W R1235W], the mutation enrichment score was -5. For IVMILTYKYLQKPMYEVQWKDVEEINGNNYVYIDPTQLPYD [V559D V559D], the mutation enrichment score was 3.9. YYVSMDALLGGSEIWRDIDFSHEAPAFLPWHRLFLLRWEQE [A201S A201S] showed a mutation enrichment score of 5. Work on MHYYVSMDALLGGSEIWRDINFAHEAPAFLPWHRLFLLRWE [D199N D199N] yielded a mutation enrichment score of -1.8. In the case of WMHYYVSMDALLGGSEIWRDTDFAHEAPAFLPWHRLFLLRW [I198T I198T], the mutation enrichment score is reported as -4.9.

These binders were tested against MAP1LC3A_ATG8__Q9H492_2_121 in the same assay as above. Conditions: number of wild-type / mutant comparisons summed (bounds the score): 6; paper call: no_effect; wild-type window: ….
For WVVRNWTDLENSIVSVERMQHYAWTPKEAPWRLPTCAAQPP [D1238H D1238H], the mutation enrichment score was 2.5.

These binders were tested against MAP1LC3B_ATG8__Q9GZQ8_2_119 in the same assay as above. Conditions: number of wild-type / mutant comparisons summed (bounds the score): 6; paper call: no_effect; wild-type window: ….
In the case of WVVRNWTDLENSIVSVERMQHYAWTPKEAPWRLPTCAAQPP [D1238H D1238H], the mutation enrichment score is reported as 1.3.

Target: T3, EIF3B_RRM__P55884_172_274
Experiment: as above
Conditions: number of wild-type / mutant comparisons summed (bounds the score): 6; paper call: no_effect; wild-type window: …
VSAALQVTQTLQWVVRNWTDIENSIVSVERMQDYAWTPKEA [L1226I L1226I] gave a mutation enrichment score of -4. TLQWVVRNWTDLENSIVSVEGMQDYAWTPKEAPWRLPTCAA [R1235G R1235G] showed a mutation enrichment score of -3.9. For TLQWVVRNWTDLENSIVSVEWMQDYAWTPKEAPWRLPTCAA [R1235W R1235W], the mutation enrichment score was -4.

The binders below were run against MAP1LC3A_ATG8__Q9H492_2_121 in the same assay as above. Conditions: number of wild-type / mutant comparisons summed (bounds the score): 12; paper call: diminished; wild-type window: ….
For VSAALQVTQTLQWVVRNWTDIENSIVSVERMQDYAWTPKEA [L1226I L1226I], the mutation enrichment score was -9.5. For TLQWVVRNWTDLENSIVSVEGMQDYAWTPKEAPWRLPTCAA [R1235G R1235G], the mutation enrichment score was -10.

Each binder was assayed against MAP1LC3B_ATG8__Q9GZQ8_2_119 in the same assay as above. Conditions: number of wild-type / mutant comparisons summed (bounds the score): 12; paper call: diminished; wild-type window: ….
Work on VSAALQVTQTLQWVVRNWTDIENSIVSVERMQDYAWTPKEA [L1226I L1226I] yielded a mutation enrichment score of -8.5. For TLQWVVRNWTDLENSIVSVEGMQDYAWTPKEAPWRLPTCAA [R1235G R1235G], the mutation enrichment score was -9.

These binders were tested against MAP1LC3A_ATG8__Q9H492_2_121 in the same assay as above. Conditions: number of wild-type / mutant comparisons summed (bounds the score): 12; paper call: no_effect; wild-type window: ….
Binder TLQWVVRNWTDLENSIVSVEWMQDYAWTPKEAPWRLPTCAA [R1235W R1235W] has a mutation enrichment score of -3.5.

Each binder was assayed against MAP1LC3B_ATG8__Q9GZQ8_2_119 in the same assay as above. Conditions: number of wild-type / mutant comparisons summed (bounds the score): 12; paper call: no_effect; wild-type window: ….
TLQWVVRNWTDLENSIVSVEWMQDYAWTPKEAPWRLPTCAA [R1235W R1235W] gave a mutation enrichment score of -4.2.
